Data: PubChem BioAssay (NCI)
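In this assay, cells in 96-well plates receive the compound at five concentrations for 48 hours. Endpoints are linearly interpolated between the surrounding concentrations. The concentration for 50% growth inhibition is given as GI50. At the TGI there is no net growth.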

tested on: NCI-H322M lung; assay: inhibition of tumour cell growth, NCI panel, 48 h

SMILES	GI50	TGI
Cc1c(C(=N)C(C#N)C#N)c(=N)oc2c1ccc1ccccc12	17.5 µM	> 100 µM
CCNc1nc(O)c(/C=C2\C=Nc3ncccc32)s1	2.56 µM	> 100 µM
COC1N(C2CC(O)C(CO)O2)C(=O)NC(=O)C1(F)Br (stereo unspecified)	> 5 µM	> 100 µM
COc1ccc(N=Nc2c(-c3c(OC)cc4occc4c3OC)[nH]c(=O)c(C#N)c2C)cc1		> 100 µM
COc1ccc2c(c1)C(=O)c1c-2c(Nc2ccccc2OC)nc2ccccc12	> 100 µM	> 100 µM
COc1cc(CNc2nc3cc(N)cc(N)c3nc2-c2ccccc2)cc(OC)c1	44.3 µM	> 100 µM
O=C(Nc1ccc(N=C=S)cc1Cl)c1cc(Br)cc(Br)c1O		61 µM
COc1ccc(OC)c(NCC(=O)n2nc(/C=C\c3ccc(O)c(OC)c3)cc2/C=C\c2ccc(O)c(OC)c2)c1	2.95 µM	13.9 µM
O=C(c1ccco1)N(C(=O)N1CCCCC1)c1ccccc1		> 100 µM
O=C1NN(C2=NNC3(C(=O)N2)c2ccccc2-c2ccccc23)C(c2ccccc2)=N/C1=C/c1ccc(Cl)cc1	81 µg/mL	> 150 µg/mL
CCN(C)c1nc(N(C)CC)c2nc(N(C)CC)nc(N(C)CC)c2n1		> 100 µM
COCC([C@@H](O)C(O)C(=O)NCC[C@@H](C)c1nc(/C=C/CC2OC3(C[C@H](O)C2C)OC(C(C[C@H](O)C(C)[C@H](O)C(C)/C=C(C)/C(C)=C/C=C/C(C)=C/C#N)OC)[C@@H](OP(=O)(O)O)C3(C)C)co1)N(C)C (stereo partly specified)		0.000399 µM
O=C(CC(NC(=O)C(F)(F)F)C(=O)O)OCc1ccccc1 (stereo unspecified)		> 100 µM
CC(=O)ON1CCCC(P(=O)(OCOC(=O)C(C)(C)C)OCOC(=O)C(C)(C)C)C1=O (stereo unspecified)	0.901 µM	11.3 µM
COC(=O)C(Cc1cn(C(C)n2cc(CC(NC(C)=O)C(=O)OC)c3ccccc32)c2ccccc12)NC(C)=O (stereo unspecified)		> 100 µM
N#CC(C(=O)C(=O)Nc1c(Cl)cccc1Cl)c1ccccc1 (stereo unspecified)	> 100 µM	> 100 µM
COC(=O)CNC(=O)C(CSC(=O)OCC1c2ccccc2-c2ccccc21)NC(=O)CCC(NC(=O)OCC1c2ccccc2-c2ccccc21)C(=O)OC (stereo unspecified)		67.9 µM
O=C(CCc1cc(O)cc(O)c1)NCCc1cc(OCc2ccccc2)cc(OCc2ccccc2)c1		36.9 µM
c1c[nH]c(-c2cccc3nsnc23)c1		> 100 µM
C[C@]12CC[C@H]3[C@@H](CCC4=CC(=O)CC[C@@]43C)[C@@H]1CC[C@@H]2c1csc(N)n1	13.2 µM	29.4 µM
Cc1nc2ccccc2nc1CC(=O)C(=O)Nc1ccc(Cl)cc1Cl		> 100 µM
O=C(NCCNCCO)c1ccc2c(c1)oc1cc3ccccc3c(=O)n12	0.112 µM	8.2 µM
CCOC(=O)/C=C/c1nc(C#N)c(N)o1		> 100 µM

SMILES	GI50	TGI
O=C1Oc2ccccc2C(=O)/C1=C1/C=C(c2ccccc2)SS1		> 100 µM
c1ccc(-c2[nH]ncc2-c2ccnc(-c3ccc(OCCn4ccnc4)cc3)c2)nc1	> 25 µM	> 25 µM
COC(=O)OC1C(O[C@H]2C[C@H]3[C@@H]4CC=C5C[C@@H](O)CC[C@]5(C)[C@H]4CC[C@]3(C)[C@H]2[C@H](C)C(=O)CCC(C)C)OCC(O)C1OC1OCC(O)C(O)C1OC(=O)c1ccc(OC)cc1 (stereo partly specified)	0.762 µM	19.1 µM
CN(C)CCNC(=O)c1cccc2c1Nc1ccccc1S2		27.8 µM
Cc1nc(N)nc(CCC(=O)Nc2cccc(C(F)(F)F)c2)c1-c1ccc(Cl)cc1		> 100 µM
O=C(NC12CC3CCC1CC(C3)C2)[C@@H]1CCCN1C(=O)OCc1ccccc1 (stereo partly specified)		> 100 µM
N#CC1(c2ccc(NC(=O)c3cccnc3NCc3ccncc3)cc2)CCCC1	30.6 µM	> 100 µM
CC(=O)O[C@@H](c1nccn1Cc1ccccc1)[C@H]1OC(C)(C)O[C@@H]1[C@H]1COC(C)(C)O1		> 100 µM
O=[N+]([O-])c1cccc(C2=NN(c3ccccc3)C3c4cc(Br)ccc4OCC23)c1 (stereo unspecified)		> 100 µM
[N-]=[N+]=CC(=O)C1CCCN1C(=O)c1ccccc1 (stereo unspecified)		> 10 µM
Cc1ccc2cccc(-c3cccc4ccccc34)c2n1		75.6 µM
CN(C)CCn1c(=O)c2ccc(NCCCN(C)CCCNc3ccc4c(=O)n(CCN(C)C)c(=O)n5c6ccc(O)cc6c(=O)c3c45)c3c(=O)c4cc(O)ccc4n(c1=O)c23		1.52 µM
CCn1cc(C(=O)O)c(=O)c2cc(F)c(N3CCN(S(=O)(=O)c4cccc5ccccc45)CC3)cc21	2.6 µM	8 µM
CCOC(=O)c1c(N2CCCC2)[nH]c(=O)c(C(c2ccc(OC)cc2)c2c(O)c(C(=O)OCC)c(N3CCCC3)[nH]c2=O)c1O		> 100 µM
Cc1ccc2c(-c3ccnc(Nc4ccc5c(c4)OCCO5)n3)c(-c3ccc(C(F)(F)F)cc3)nn2n1	16.7 µM	> 25 µM
C[C@@H]1CC[C@@]2(C)C(C(=O)O)=CCCC2[C@@]1(C)CC(=O)c1ccoc1 (stereo partly specified)		> 25 µM
COC(=O)C1C(C(=O)OC)C2C(=O)C3C(C(=O)OC)C(C(=O)OC)C3C(=O)C12 (stereo unspecified)		> 100 µM
CC1CC(N2CCOCC2)=Nc2ccccc2N1C (stereo unspecified)		> 100 µM
COc1ccc(C)cc1N1C(=O)C2ON(Cc3ccc(CC(N)=O)cc3)C(c3c4ccccc4c(Cl)c4ccccc34)C2C1=O (stereo unspecified)		> 100 µM
NS(=O)(=O)c1nnc(NC(=O)N(c2ccccc2)c2ccccc2)s1		71.8 µM
N#C/C(=C\c1cc(OCc2ccccc2)c(OCc2ccccc2)cn1)C(N)=O		> 100 µM
COC(=O)c1ccccc1C1CN=NC12Cc1c(ccc(C)c1C)C2=O (stereo unspecified)		> 100 µM
